Data published in PubChem BioAssay (NCI).
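Briefly, cells in 96-well plates were exposed to five compound concentrations for 48 h, and endpoints were estimated by linear interpolation. Abbreviation: GI50, concentration required for 50% inhibition of growth. TGI: total growth inhibition.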

These molecules were tested on NCI-H322M lung (assay: NCI-60 cell line screen, 48 h).

Structure (SMILES)	GI50 [µM]	TGI [µM]
O=C1C(Cl)=C(Nc2cccc(O)c2)C(=O)N1c1cccc(Cl)c1	36.6	> 100
CCOC(=O)C#Cc1ccc([N+](=O)[O-])cc1		15.4
CCOC(=O)C1(C(=O)OCC)CC(=O)[C@@]2(C1)OCC[C@H]1OC(=O)C[C@H]12		> 100
N#C/C(=C/C=C/c1ccccc1)S(=O)c1ccccc1 (stereo not drawn)	1.54	3.78
N#CC(N=Nc1ccccc1)c1nc2ccccc2o1 (stereo not drawn)		> 100
O=C(N/N=C\c1ccc([N+](=O)[O-])cc1)c1ccccc1Nc1ccccc1C(=O)N/N=C/c1ccc([N+](=O)[O-])cc1		> 100
COc1ccc(CCc2ccc(O)c(C(=O)O)c2)cc1OC		> 100
COc1cc2c3c(n(Cc4ccccc4)c(=O)c2cc1OC)-c1ccccc1C3=O		> 100
COc1ccc(C(C#N)NCCCCCCNC(C#N)c2ccc(OC)cc2)cc1 (stereo not drawn)		> 100
O=C1c2cccc3cc([N+](=O)[O-])cc(c23)C(=O)N1CCN1CCCC1	1.13	4.98
CCC1CCCCN1C(=S)N/N=C(\C)c1ccccn1 (stereo not drawn)	0.084	5.99
CCCC1C(=O)C(CC)Cc2c(OC)ccc(OC)c21 (stereo not drawn)		> 100
CCOC(=O)/C(C#N)=C\C=C1/C=CNC2=NCCN21		> 100
NC1=NC(c2ccccc2)CC(c2cc(Cl)cc(Br)c2O)=N1 (stereo not drawn)		41.4
Cc1ccc(Nc2nc(=O)[nH]c(=O)[nH]2)cc1N=[N+]=[N-]		> 100
Cc1ccc2cccc3c2c1CC1(C3=O)S(=O)(=O)OCCOS1(=O)=O		> 100
CCOC(=O)c1c(C)[nH]c(/C=C2\N=C(c3ccc[nH]3)C=C2OC)c1C	0.164	4.53
COc1ccccc1N1CCN(C(=O)c2ccc(NS(=O)(=O)c3cccc4cccnc34)cc2)CC1	> 100	> 100
Cc1ccc(NC(=O)CC/C(CC(=O)c2ccc(Cl)cc2)=N\NC(=O)C(=O)NN)cc1C		> 100
CN[C@@H](C)[C@H](OP(=O)(O)OC1[C@@H](O)[C@H](O)C(O)[C@H](O)[C@@H]1O)c1ccccc1 (stereo partly drawn)		> 100
Cc1ccc(S(=O)(=O)/N=C(\[O-])C2=C(c3ccccc3)NN(C)c3nc4cccc[n+]4nc32)cc1		> 100
Cc1ccc(/C=N/Nc2nncc3ccccc23)s1		> 100
Oc1ccc2ccccc2c1N=Nc1ccccn1	1.76	29.5
C/C(=N\NS(=O)(=O)c1ccc(C)cc1)c1c(O)cc(C)oc1=O		> 100
CC(=N/NC(=S)N1CCCCC1)/C(C)=N\NC(=S)N1CCCCC1		3.51

Structure (SMILES)	GI50 [µM]	TGI [µM]
O=c1ccccc(-c2ccc(-c3ccco3)cc2)c1O	0.605	59.9
CCOC(=O)c1cc(=O)oc2c1N(C)c1ncccc1N2		> 100
O=C1/C(=C/c2ccccc2)CN(CCC(=O)N2C/C(=C\c3ccccc3)C(=O)/C(=C/c3ccccc3)C2)C/C1=C\c1ccccc1	> 88.7	> 100
CCN(CC)CCOC(=O)/C(=C/c1ccc(OC)cc1)c1cc(OC)c(OC)c(OC)c1		> 100
O=c1c(-c2ccccc2Cl)coc2cc(F)ccc12		> 100
NCC(=O)N1CCN(c2nc(N3CCCC3)c3nc(Cl)c(NCc4ccccc4)nc3n2)CC1		3.52
Cn1c2ccccc2n2c(=O)c3cccnc3c(C#N)c12		> 100
CC1(C)C[C@H](O)[C@H](O)[C@]23C(=O)O[C@H](O)[C@H]2C(C=O)=CC[C@@H]13		> 100
O=C(O[C@H]1CN[C@H](C#Cc2cc3ncnc(Nc4ccc(OCc5cccc(F)c5)c(Cl)c4)c3s2)C1)N1CCOCC1	2.88	> 21.3
Cc1ccc(O)c(-c2csc(NCN3CCN(CNc4nc(-c5cc(C)ccc5O)cs4)CC3)n2)c1		> 100
C=CCCC(C)N(C(=O)OC(C)(C)C)S(=O)(=O)c1ccc(C)cc1 (stereo not drawn)		> 100
O=C1C=C(N2CC2)C(=O)C=C1N1CC1	0.397	4.28
O=C1/C=C/[C@@H](O)[C@@H]2C[C@@H](O)C[C@H]2/C=C/CCC[C@H](CO)O1	4.95	> 100
CC(C)CC1[C@@H](OCc2ccccc2)COS(=O)(=O)N1Cc1ccccc1 (stereo partly drawn)		> 100
COc1ccc(C(=O)C(Br)C(Br)C(=O)O)cc1 (stereo not drawn)		> 100
CCC(O)(c1ccc(OC)cc1)C(c1ccc(OCc2ccccc2)cc1)c1ccc(OCc2ccccc2)cc1 (stereo not drawn)		> 100
O=C(NCCCCNCCCNC(=O)c1cc(-c2ccccc2)nc2ccccc12)c1cc(-c2ccccc2)nc2ccccc12		3.44
Cc1ccc(Nc2sc(C)cc2C#N)c([N+](=O)[O-])c1		> 100
COc1cc(/C=C2\CN(S(=O)(=O)c3ccc(C)cc3)C/C(=C\c3cc(CN4CCCCC4)c(O)c(OC)c3)C2=O)cc(CN2CCCCC2)c1O	1.62	3.1
CC(Oc1ccc(OCC2CCCCC2)cc1)C(=O)O (stereo not drawn)		> 100
ClC1(c2ccccc2)c2ccc(Br)cc2-c2cc(Br)ccc21		32.7
COc1cccc(-c2nc(-c3ccc(NC(=O)c4ccccc4)cc3)[nH]c2-c2ccnc(Br)c2)c1	3.97	> 100
COc1ccc(Cl)cc1NC(=O)c1c(NC(=O)C(F)(F)C(F)(F)F)sc2c1CCCCC2	1.58	6.73
COc1ccc(-c2csc(NC(=O)N3CCN(c4cc5c(cc4F)c(=O)c(C(=O)O)cn5C4CC4)CC3)n2)cc1	2.64	> 100
CCCCNC(=O)Oc1ccc2c(=O)c3sc4c(=O)c5ccccc5c(=O)c4c3c(=O)c2c1	0.17	0.316

Structure (SMILES)	GI50 [µM]	TGI [µM]
COC(=O)c1ccc(CCc2cc(O)c(Br)cc2O)cc1		> 64
CN(C)c1ccc2cc(-c3cc4c(oc3=O)-c3ccccc3OC4O)c(=O)oc2c1 (stereo not drawn)	11.4	> 25
CC(=O)Nc1ccc2oc(=O)c3ccccc3c2c1		> 100
CCC(c1ccc(OC)cc1)C(CC)c1ccc(O)c(CN2CCCC2)c1 (stereo not drawn)	5.13	18.3
Cc1cccc2c1NC(=O)[C@@]21[C@H](C(=O)c2ccccc2)[C@]2(C(=O)Nc3ccccc32)[C@H]2CCCN21	44.4	> 100
O=C(OCC1CCCN2CCCCC12)c1ccncc1 (stereo not drawn)		> 100
COC1CC2C=CC3C4OC2(/C(C)=C/C(C)C(C(C)O)OC1=O)C3C(O)C(C)C4OC(=O)c1ccc[nH]1 (stereo not drawn)		> 100
CC(C)(C)N1CC(OC(N)=O)C1	> 100	> 100
O=C(/C=C\Nc1ccccc1O)C(Cl)(Cl)Cl		> 100
CCc1n[nH]c(=O)n1NC(=O)c1ccccc1C(=O)O		> 100
C[Si](C)(C)/C=C\CCCN1C(=O)CCC1=O		> 100
NC(=O)c1cc(Cl)ccc1NC(=O)c1ccccc1-c1ccccc1	4.63	> 100
COc1cc(C)[nH]c(=O)c1CN1CCc2c(Cl)cc([C@H](OC)C3COC3)c(Cl)c2C1=O	> 100	> 100
CC1Cc2c(N)nc(N3CCOCC3)nc2NC1=O (stereo not drawn)		> 100
CC(C(=O)c1ccccc1)C1(O)C(=O)Nc2ccccc21 (stereo not drawn)		> 100
O=C(NC1CCN(Cc2ccccc2)CC1)c1cc(C(=O)NC2CCN(Cc3ccccc3)CC2)cc(C(=O)NC2CCN(Cc3ccccc3)CC2)c1	8.47	23.2
COC(OC)(c1ccccc1)C(I)I		> 56.6
O=C1CC2C(=O)C1C(C(=O)O)C2C(=O)O (stereo not drawn)		> 100
Nn1c(SCC(=O)NCc2ccccc2)nc2ccccc2c1=O		> 100
CC([C@H]1CCC2C3CCC4CC5(CC[C@]4(C)C3CC[C@@]21C)c1ccccc1C(=O)N5C)N(C)C (stereo partly drawn)		> 100
CC1(C)C(=O)C2(OS(=O)(=O)C(F)(F)F)CCC1C2 (stereo not drawn)		> 100
Cc1[nH]c2ccccc2c1C1CC(=O)NC1=O (stereo not drawn)		> 100
CC1=C(/C=C/C2=CC(=C\C(=O)O)/CC(C3=C(C)CCCC3(C)C)C2)C(C)(C)CCC1 (stereo not drawn)		25.3
CSc1ccc(/C=C2\N=C(c3ccccc3)N(c3nc4c(Cl)cc(Cl)cc4s3)C2=O)cc1		99.3
N#CC(C(=O)CCC(=O)Nc1ccc(Cl)cc1)c1ccccc1Cl (stereo not drawn)		> 100

Structure (SMILES)	GI50 [µM]	TGI [µM]
N=C1C(c2nc3ccccc3s2)=C(O)CN1c1ccc(Cl)cc1Cl	17	70.8
COc1cc2ccnc3c2c(c1OC)CC1CC(O)C(OC)CC31 (stereo not drawn)		> 100
CC(C)Cc1ccc(C(C)/C=C2\CCC(CN3CCCC3)C2=O)cc1 (stereo not drawn)		48.2
CN(C)Cc1cccc(CN(C)C)[c]1[Sn]([Br])([c]1ccccc1)[c]1ccccc1	13	38.3
O=C(N/C(=C\c1ccc([N+](=O)[O-])cc1)c1nc2ccc(Cl)cc2[nH]1)c1ccccc1		87.5
C=Cc1cc2c(cc1O)CC[C@@H]1[C@@H]2CC[C@]2(C)[C@@H](O)CC[C@@H]12		15.1
COC1(OC)C2(Cl)C(Cl)=C(Cl)C1(Cl)C1COCC12 (stereo not drawn)		> 100
COc1ccc(C[C@H]2COC(=O)[C@@H]2Cc2ccc(O)cc2)cc1OC		> 100
N/C(=N\c1nc2ccccc2s1)NC(=O)Nc1ccccc1Cl	0.567	> 67.1
COc1c(B(O)O)cccc1-c1nc2c(F)cc3[nH]ncc3c2c2c1CCCC2	2.5	23.1
CC[C@@]1(O)C(=O)OCc2c1cc1n(c2=O)Cc2c-1nc1ccccc1c2/C=N\NC(=O)C(N)Cc1cnc[nH]1 (stereo partly drawn)		> 100
O=S1c2ccccc2N=C(c2ccc(Cl)cc2)CC1c1cccs1 (stereo not drawn)		> 100
COc1cc2c(=O)n(CCCn3ccnc3)c3c4cc5c(cc4ccc3c2cc1OC)OCO5	0.605	> 100
CC(=O)NC1C(OCc2ccccc2)OC(COC(=O)CCCCCNc2ccc([N+](=O)[O-])c3[nH]c4ccc(O)cc4c(=O)c23)C(O)C1OC(C)C(=O)N[C@@H](C)C(=O)N[C@H](CCC(=O)OCc1ccccc1)C(N)=O (stereo partly drawn)		11.7
COc1cc(C2SCC(=O)N2c2ccc(Cl)cc2)cc(I)c1O (stereo not drawn)		> 100
COc1cc2cc(C(=O)N3CC(CCl)c4c3cc(N(C)C)c3ccccc43)[nH]c2c(OC)c1OC (stereo not drawn)		> 100
CC(C)NC(=O)OCc1c(COC(=O)NC(C)C)c(-c2ccc[n+](COC(=O)C3CC3)c2)n2c1CCC2		> 100
Cc1ccc2c(N/N=C\c3ccco3)cc(C)nc2n1	3.29	13
Cc1cc(O)c(/C=N/c2nc(-c3cccc([N+](=O)[O-])c3)cs2)c(=O)o1		> 100
COc1ccc(CCCC(=O)O)c(C)c1		> 100
NCCCn1c2c(c3cc4c(cc3c1=O)OCO4)C(=O)c1ccccc1-2	0.709	1.96
CCn1c(-c2ccc(C)cc2)cs/c1=N\C(P(=O)(O)O)P(=O)(O)O		> 100
